Measured values reported in PubChem BioAssay (EPA / NIEHS).
Several values for one entry are separate records, joined by “and”; a condition that tells them apart may be missing. Equal entries are not always repeated. Inconclusive means that the source gave no clear call. Such entries were picked first, then a sample of the others. Potencies beside an inconclusive call are fits to weak or partial responses and may not hold up. The source holds several records for some structures; these can differ, active in one and inactive in another. Activity calls are given as the source filed them. How the source made its calls: active means hit-call score of the fitted dose curve at least 0.9, where 1 is the maximum; inconclusive means response in the unintended direction; inactive means score below 0.9.

These compounds were tested on chicken Androgen Receptor (AR), gene 422165 (assay: ATG_chAR_XSP2: Attagene TRANS-FACTORIAL Multi-Species (XSP2) HepG2 Assay for chicken Androgen Receptor (AR) (AID 2283819);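 further: hits raise reporter mRNA above DMSO so potency is for activation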).
Protocol: ATG_XSP2_multi-species_TRANS is a cell-based, multiplexed assay created by modifying the existing Attagene TRANS-FACTORIAL system to include a panel of nuclear receptors from some or all the following species: human (Homo sapiens), mouse (Mus musculus), frog (Xenopus laevis), zebrafish (Danio rerio), chicken (Gallus gallus), and turtle (Chrysemys picta). The ECOTOX-FACTORIAL format uses HepG2, a human liver cell line, with measurements taken at 24 hours after chemical dosing in a 24-well plate. Xsp2 included 3 nM 6-alpha-fluorotestosterone and 1.5 nM norgestrel to stimulate the androgen receptor.ATG_chAR_XSP2 is one of 29 assay components measured or calculated from the ATG_XSP2_multi-species_TRANS assay. It is designed to make measurements of mRNA induction, a form of inducible reporter, as detected with fluorescence intensity signals by Reverse transcription polymerase chain reaction (RT-PCR) and Capillary electrophoresis technology.The assay endpoint ATG_chAR_XSP2 was analyzed in the positive analysis fitting direction relative to DMSO as the negative control and baseline of activity. Using a type of inducible reporter, measures of mRNA for gain-of-signal activity can be used to understand the reporter gene at the transcription factor-level as they relate to the gene AR. Furthermore, this assay endpoint can be referred to as a primary readout, because this assay has produced multiple assay endpoints where this one serves a reporter gene function. To generalize the intended target to other relatable targets, this assay endpoint is annotated to the nuclear receptor intended target family, where the subfamily is steroidal.
Human liver HepG2 cells are transiently transfected with multiple reporter transcription units (MRTUs) in 6-well plates using FuGene 6 reagent (Roche; 3 ml FuGene/1 mg DNA). The MRTU constructs are regulated by a cis-regulating element (promoter). […] A major difference between the CIS and TRANS system is that in CIS activities of endogenous TFs are measured, whereas the TRANS assay evaluates changes in activities of exogenous, chimeric NR-Gal4 proteins. […] At the end of 24 hour incubation, total RNA was isolated using TriZol reagent (Invitrogen). The isolated RNA is then reverse-transcribed using oligo(dT) primer and Mo-MLV reverse transcriptase (Invitrogen) with DNAse I (Ambion) treatment for 30 min. The one-tenth of the produced cDNA was amplified by PCR using Taq DNA polymerase (Invitrogen) and two reporter sequence-specific primers. The PCR products were fluorescently labeled by primer extension with 6-arboxyfluorescein (6-FAM) 5'-labeled reporter sequence-specific primer (2 min at 95 C, 20 s at 68 C and 10 min at 72 C) and these products were digested with 5U of HpaI (New England Biolabs) for 2h at 37 C. The fragments were purified using Qiaquick PCR columns (Qiagen), analyzed on an ABI 3130xL genetic analyzer (Applied Biosystems) with peak positions identified by using a set of X-rhodamine (ROX)-labeled MapMarker1000 molecular weight standards (BioVentures). The raw capillary electrophoresis data was processed using Attagraph software (Attagene).

| SMILES | AC50 | outcome |
| --- | --- | --- |
| Oc1ccc2cc(SSc3ccc4cc(O)ccc4c3)ccc2c1 | active: 40700 nM | inactive |
| C[C@]12CC[C@@H]3c4ccc(O)cc4CC[C@H]3[C@@H]1C[C@@H](O)[C@@H]2O | inconclusive: 100 nM | – |
| CC/C(=C(/CC)c1ccc(O)cc1)c1ccc(O)cc1 | inconclusive: 100 nM | – |
| Cc1cc(O)cc(C)c1Cl | inconclusive: 25.8 µM and inconclusive: 55 µM | – |
| CN(C)C(=N)N=C(N)N | – | inactive |
| CC(C)(C)c1ccc(S)cc1 | inconclusive: 100000 nM | inactive |
| CC(=O)[C@@]1(O)CC[C@H]2[C@@H]3CCC4=CC(=O)CC[C@]4(C)[C@H]3CC[C@@]21C | inconclusive: 1.32 µM and inconclusive: 566 nM | – |
| CC/C(=C(\c1ccccc1)c1ccc(OCCN(C)C)cc1)c1ccccc1 | inconclusive: 5550 nM | – |
| BrCc1cccc(Oc2ccccc2)c1 | inconclusive: 82.9 µM and inconclusive: 58 µM | – |
| C[C@]12CC[C@@H]3c4ccc(O)cc4CC[C@H]3[C@@H]1CCC2=O | inconclusive: 100 nM | – |
| O=c1c(-c2ccc(O)cc2)coc2cc(O)cc(O)c12 | inconclusive: 258 nM and inconclusive: 1 µM | – |
| CC(=O)O[C@]1(C(C)=O)CC[C@H]2[C@@H]3C=C(Cl)C4=CC(=O)[C@@H]5C[C@@H]5[C@]4(C)[C@H]3CC[C@@]21C | inconclusive: 101 nM | – |
| CCCCC(CC)COC(=O)c1ccccc1C(=O)O (stereo not drawn) | – | inactive |
| c1ccc2c(c1)ccc1ccccc12 | inconclusive: 33.4 µM and inconclusive: 100 µM | – |
| CN(CCOc1ccc(CC2SC(=O)NC2=O)cc1)c1ccccn1 (stereo not drawn) | inconclusive: 62.7 nM | – |
| Oc1ccc(C(c2ccc(O)cc2)C(Cl)(Cl)Cl)cc1 | inconclusive: 4980 nM | – |
| O=C(Oc1ccccc1)c1ccc(O)cc1 | inconclusive: 9.08 nM | inactive |
| CCCCC(CC)COC(=O)c1ccc(O)cc1 (stereo not drawn) | active: 51900 nM | – |
| Cc1oc(-c2ccccc2)nc1CCOc1ccc(C[C@H](Nc2ccccc2C(=O)c2ccccc2)C(=O)O)cc1 | inconclusive: 90 nM | – |
| C#C[C@]1(O)CC[C@H]2[C@@H]3CCc4cc(O)ccc4[C@H]3CC[C@@]21C | inconclusive: 4.24 nM | – |
